Results as given in PubChem BioAssay (NCATS).
This list was built around the results that the source calls inconclusive (neither active nor inactive); the mix of calls is not that of the screen. For some assays here: Where the call is inconclusive, the potency comes from a doubtful curve fit. For some assays here: “Side channel” marks fits to a control or component signal instead of the main read-out. The source made the active and inactive calls. Unless noted, calls come from the whole dose curve; as a rule, active = well fitted curve in either direction with a large enough effect (not every such curve was filed as active); inconclusive = small, poorly fitted or top-dose-only effect, or another doubt; inactive = flat fitted curve, though single readings scatter.

Legend:
[1] = AP1 Signaling Pathway (AID 357); details: ME-180 AP-1-bla reporter, EGF-induced, beta-lactamase ratio, 5 h; at 17.2 µM (top of the series) unless noted; note: top concentration of the series differs between compounds; % is set by controls: 0 for no effect and ±100 for the full control effect
How it was run: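 Modulation of EGF-driven AP-1 transcription was assessed with a beta-lactamase reporter in ME-180 cells. Compound and EC50 EGF were co-incubated 5 hours at 37 °C before 2.5-hour CCF4 loading at room temperature and dual-emission reading.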

[2] = NFAT Signaling Pathway (AID 444); details: Jurkat NFAT-bla M1, carbachol, beta-lactamase ratio, 5 h; at 17.2 µM (top of the series) unless noted;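 note: carbachol stimulus at about its EC50 of 1 µM final; % is set by controls: 0 for no effect and ±100 for the full control effect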
How it was run: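 Jurkat cells carrying an NFAT-driven β-lactamase reporter and co-transfected muscarinic M1 receptor were treated with compound plus carbachol (1 uM final, an EC50 level) for 5 h at 37 °C. CCF4 loading followed for 1 h at RT; 460/530 nm ratio gave %activity.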

[3] = Stat Signaling Pathway (AID 446); details: ME-180 SIE beta-lactamase reporter, IL-6 stimulated, 5 h; at 7.69 µM (top of the series) unless noted;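 note: ME-180 cervical cancer cells given 40 pM IL-6 alongside compound; SIE-controlled beta-lactamase reporter measured as 460/530 nm FRET emission ratio; top concentration of the series differs between compounds; % is set by controls: 0 for no effect and ±100 for the full control effect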
How it was run: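 FRET read-out (405 nm excitation, 460/530 nm emission) of a beta-lactamase reporter under a STAT-inducible element in ME-180 cervical carcinoma cells. Cells with compound receive 40 pM IL-6 for 5 h. Values are normalised to AC90 stimulation and AC90 JAK-inhibitor controls.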

[4] = molecular target: Mitogen-activated protein kinase 10 (Mus musculus) (UniProt Q61831); test: JNK3 AlphaScreen Assay (AID 530); details: JNK3 lysate, c-Jun phosphorylation; activity change, negative = inhibition: at 57.1 µM (top of the series);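 note: kinase came from lysate of stimulated human HepG2 cells; signal reports phosphorylation of biotinylated GST-cJun 1-79 at Ser73 with 10 µM ATP; potency is the fitted concentration of half-maximal effect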
How it was run: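 Phosphorylation of biotinylated GST-cJun(1-79) at Ser73 is measured by AlphaScreen proximity luminescence. Enzyme is JNK3 in HepG2 lysates activated with interleukin-1beta and tumor necrosis factor alpha; ATP is 10 uM final.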

[5] = molecular target: 3',5'-cyclic-AMP phosphodiesterase 4B (Homo sapiens) (UniProt Q07343); test: qHTS Assay for Inhibitors of PDE-IV (AID 607; active = well fitted activation curve with a large enough effect in the main read-out, with a control signal flat, not every such curve was filed as active; inconclusive = small, poorly fitted or top-dose-only effect, or effect the other way, or a change in a side signal; note: potency is the fitted concentration of half-maximal effect); details: HEK293 ACTOne CNG channel cells, membrane potential fluorescence; activation (PDE inhibition): at 22.9 µM (top of the series)
How it was run: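 Cell-based read-out of cAMP via a modified cyclic nucleotide-gated channel and membrane potential dye (535/590 nm) in HEK293 cells expressing PDE4 endogenously. Compounds tested up to 22.9 uM final; 100 uM RO 20-1724 reference.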

[6] = qHTS Assay for Identification of Small Molecule Agonists for Hypoxia Response Element Signaling Pathway (AID 914; active = well fitted activation curve with a large enough effect in the signal ratio, with a control signal flat, not every such curve was filed as active; inconclusive = small, poorly fitted or top-dose-only effect, or effect the other way, or a change in a side signal; the % refers to the signal ratio; note: potency is the fitted concentration of half-maximal effect); details: ME-180 (cervical carcinoma) HRE-bla reporter, beta-lactamase ratio, CoCl2, 17 h; activation: active compounds read high
How it was run: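 Reporter activity (beta-lactamase, CCF4 460nm/530nm ratio) in HRE-bla ME-180 cells is recorded after 17 h compound exposure with EC50 CoCl2 at 37 degrees Celsius. AC50 values come from titration data.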

[7] = molecular target: Cytochrome P450 2C9 (Homo sapiens) (UniProt P11712); test: qHTS Assay for Inhibitors and Substrates of Cytochrome P450 2C9 (AID 883; active = well fitted curve in the direction sought with a large enough effect; inconclusive = small, poorly fitted or top-dose-only effect, or another doubt; inactive = no such curve, though single readings can be large; an effect the other way counts as inactive or inconclusive; note: potency is the fitted concentration of half-maximal effect; nearly all actives have a fitted effect of over 60% in size); details: recombinant CYP2C9, luciferin-H luminescence, 60 min; activity change, negative = inhibition: at 57.1 µM (top of the series)
How it was run: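 Human CYP2C9 (10nM) hydroxylated Luciferin-H (100uM, at its KM) to luciferin in 25mM KPO4. Compound was preincubated 10 min at 37C, then NADPH regeneration started a 60 min reaction at 37C. Luminescence was read after detection reagent, normalized to 57uM sulphaphenazole.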

[8] = molecular target: Cytochrome P450 3A4 (Homo sapiens) (UniProt P08684); test: qHTS Assay for Activators of Cytochrome P450 3A4 (AID 885; active = well fitted curve in the direction sought with a large enough effect; inconclusive = small, poorly fitted or top-dose-only effect, or another doubt; inactive = no such curve, though single readings can be large; an effect the other way counts as inactive or inconclusive; note: potency is the fitted concentration of half-maximal effect; nearly all actives have a fitted effect of over 65% in size)
How it was run: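 Luminescent readout of luciferin formed from 25 uM Luciferin-PPXE (KM level) by 20 nM CYP3A4 in 200 mM KPO4, with 60 min NADPH-driven reaction at room temperature after 10 min compound exposure. Ketoconazole (57 uM) defined 100% inhibition.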

[9] = molecular target: Cytochrome P450 2C19 (Homo sapiens) (UniProt P33261); test: qHTS Assay for Inhibitors and Substrates of Cytochrome P450 2C19 (AID 899; active = well fitted curve in the direction sought with a large enough effect; inconclusive = small, poorly fitted or top-dose-only effect, or another doubt; inactive = no such curve, though single readings can be large; an effect the other way counts as inactive or inconclusive; note: potency is the fitted concentration of half-maximal effect; nearly all actives have a fitted effect of over 60% in size)
How it was run: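 Human CYP2C19 (5nM) with Luciferin-H EGE at 10uM (its KM) in 50mM KPO4 was preincubated with compound for 10 min at 37C. NADPH regeneration started a 60 min 37C reaction. Luciferin was read by luminescence, normalized to 57uM ketoconazole.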

[10] = molecular target: Tumor susceptibility gene 101 protein (Homo sapiens) (UniProt Q99816); test: qHTS Assay for Iinhibitors of HIV-1 Budding by Blocking the Interaction of PTAP/TSG101: Hit Validation (AID 651600; active = well fitted curve in the direction sought with a large enough effect; inconclusive = small, poorly fitted or top-dose-only effect, or another doubt; inactive = no such curve, though single readings can be large; an effect the other way counts as inactive or inconclusive; note: potency is the fitted concentration of half-maximal effect; nearly all actives have a fitted effect of over 70% in size)
How it was run: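 Displacement of a FITC-labeled PTAP-motif peptide (50 nM) from the Tsg101 binding domain (10 uM) was monitored by fluorescence polarization after a 20 min room-temperature incubation.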

[11] = molecular target: Ubiquitin carboxyl-terminal hydrolase 1 (Homo sapiens) (UniProt O94782); test: Inhibitors of USP1/UAF1: Pilot qHTS (AID 504865; active = well fitted curve in the direction sought with a large enough effect; inconclusive = small, poorly fitted or top-dose-only effect, or another doubt; inactive = no such curve, though single readings can be large; an effect the other way counts as inactive or inconclusive;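 note: rhodamine fluorescence freed from ubiquitin-rhodamine substrate followed over time; potency is the fitted concentration of half-maximal effect; nearly all actives have a fitted effect of over 35% in size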)
How it was run: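 Kinetic fluorescence assay: 1nM USP1/UAF1, 15 min compound preincubation, then 150nM Ub-Rho; 480/540 nm.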
Tags give direction and shape of the fitted curve or compound fluorescence and quenching.

UniProt Q07343, sequence (Q07343 whole entry, looked up): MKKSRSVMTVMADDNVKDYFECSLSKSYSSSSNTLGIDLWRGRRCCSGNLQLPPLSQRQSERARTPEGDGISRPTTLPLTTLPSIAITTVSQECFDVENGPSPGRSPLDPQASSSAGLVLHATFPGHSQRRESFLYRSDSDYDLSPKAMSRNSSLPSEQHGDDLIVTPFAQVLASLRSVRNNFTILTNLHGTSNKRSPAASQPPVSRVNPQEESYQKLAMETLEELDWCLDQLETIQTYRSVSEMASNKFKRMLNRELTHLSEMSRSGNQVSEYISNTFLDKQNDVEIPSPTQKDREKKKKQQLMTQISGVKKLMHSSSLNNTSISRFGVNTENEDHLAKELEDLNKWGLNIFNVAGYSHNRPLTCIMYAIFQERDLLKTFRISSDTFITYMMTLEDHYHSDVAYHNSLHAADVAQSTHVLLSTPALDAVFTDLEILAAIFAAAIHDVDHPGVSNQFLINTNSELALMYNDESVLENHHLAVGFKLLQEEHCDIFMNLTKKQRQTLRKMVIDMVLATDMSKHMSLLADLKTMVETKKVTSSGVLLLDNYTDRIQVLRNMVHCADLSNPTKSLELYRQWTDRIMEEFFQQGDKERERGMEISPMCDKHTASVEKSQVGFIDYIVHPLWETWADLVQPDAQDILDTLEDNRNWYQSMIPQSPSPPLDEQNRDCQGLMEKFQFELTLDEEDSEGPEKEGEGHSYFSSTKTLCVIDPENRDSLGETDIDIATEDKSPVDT
UniProt P11712, sequence (P11712 whole entry, looked up): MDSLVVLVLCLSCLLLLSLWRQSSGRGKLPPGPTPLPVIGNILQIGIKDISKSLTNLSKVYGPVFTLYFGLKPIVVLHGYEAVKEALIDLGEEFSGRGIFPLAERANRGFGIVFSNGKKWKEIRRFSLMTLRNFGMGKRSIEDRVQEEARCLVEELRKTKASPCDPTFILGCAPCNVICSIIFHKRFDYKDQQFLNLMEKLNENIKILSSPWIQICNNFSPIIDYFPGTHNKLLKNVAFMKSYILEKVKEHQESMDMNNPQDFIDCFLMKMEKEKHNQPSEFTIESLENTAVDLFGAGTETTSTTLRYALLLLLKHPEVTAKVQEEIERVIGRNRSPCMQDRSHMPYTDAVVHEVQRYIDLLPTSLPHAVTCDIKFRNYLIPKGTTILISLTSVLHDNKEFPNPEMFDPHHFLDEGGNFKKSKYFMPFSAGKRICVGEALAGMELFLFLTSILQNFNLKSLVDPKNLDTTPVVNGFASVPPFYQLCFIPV
UniProt O94782, sequence (O94782 whole entry, looked up): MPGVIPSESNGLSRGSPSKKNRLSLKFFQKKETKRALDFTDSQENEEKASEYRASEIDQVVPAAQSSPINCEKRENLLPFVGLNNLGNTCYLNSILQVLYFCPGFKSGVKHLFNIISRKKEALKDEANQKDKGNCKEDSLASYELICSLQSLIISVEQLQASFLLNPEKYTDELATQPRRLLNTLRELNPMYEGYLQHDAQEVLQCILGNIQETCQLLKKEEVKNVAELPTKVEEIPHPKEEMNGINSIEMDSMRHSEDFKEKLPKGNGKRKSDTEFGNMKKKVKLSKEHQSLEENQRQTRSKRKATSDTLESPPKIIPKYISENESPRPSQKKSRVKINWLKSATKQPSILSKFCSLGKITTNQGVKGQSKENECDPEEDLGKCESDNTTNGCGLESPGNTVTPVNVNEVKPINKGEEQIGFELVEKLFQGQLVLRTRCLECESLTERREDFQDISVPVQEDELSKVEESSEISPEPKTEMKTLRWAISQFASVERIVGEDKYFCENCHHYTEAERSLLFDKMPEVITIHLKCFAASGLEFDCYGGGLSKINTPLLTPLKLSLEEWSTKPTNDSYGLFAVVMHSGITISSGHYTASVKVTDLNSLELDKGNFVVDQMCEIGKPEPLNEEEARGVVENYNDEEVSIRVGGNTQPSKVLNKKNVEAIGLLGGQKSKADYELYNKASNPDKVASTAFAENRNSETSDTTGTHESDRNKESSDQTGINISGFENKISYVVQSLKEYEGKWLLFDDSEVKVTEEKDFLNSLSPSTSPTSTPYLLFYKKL
UniProt P08684, sequence (P08684 whole entry, looked up): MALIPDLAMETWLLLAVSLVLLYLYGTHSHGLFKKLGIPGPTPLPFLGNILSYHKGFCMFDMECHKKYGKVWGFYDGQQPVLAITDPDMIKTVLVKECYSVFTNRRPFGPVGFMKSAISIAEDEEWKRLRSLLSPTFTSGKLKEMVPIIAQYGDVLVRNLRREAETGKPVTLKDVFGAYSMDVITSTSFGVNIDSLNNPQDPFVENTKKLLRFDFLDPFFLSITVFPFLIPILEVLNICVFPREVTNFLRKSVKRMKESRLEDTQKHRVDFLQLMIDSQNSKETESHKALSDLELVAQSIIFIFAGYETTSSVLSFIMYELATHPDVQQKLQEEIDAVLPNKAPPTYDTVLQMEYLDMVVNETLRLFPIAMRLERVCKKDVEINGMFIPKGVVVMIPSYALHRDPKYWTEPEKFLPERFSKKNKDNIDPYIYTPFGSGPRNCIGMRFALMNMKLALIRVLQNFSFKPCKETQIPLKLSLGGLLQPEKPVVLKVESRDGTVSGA
UniProt Q99816, sequence (Q99816 whole entry, looked up, the tested form may be a part): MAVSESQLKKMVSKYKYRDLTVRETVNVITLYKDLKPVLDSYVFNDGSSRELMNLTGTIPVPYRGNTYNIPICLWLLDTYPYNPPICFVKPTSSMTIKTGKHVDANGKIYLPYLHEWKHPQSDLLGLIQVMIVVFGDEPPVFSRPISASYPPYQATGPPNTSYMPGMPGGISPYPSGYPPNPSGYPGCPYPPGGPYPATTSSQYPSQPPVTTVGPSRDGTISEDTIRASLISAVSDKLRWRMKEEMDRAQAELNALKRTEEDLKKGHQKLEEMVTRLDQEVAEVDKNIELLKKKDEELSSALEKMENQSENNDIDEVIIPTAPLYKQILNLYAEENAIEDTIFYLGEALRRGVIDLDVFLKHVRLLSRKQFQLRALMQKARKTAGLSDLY
UniProt P33261, sequence (P33261 whole entry, looked up): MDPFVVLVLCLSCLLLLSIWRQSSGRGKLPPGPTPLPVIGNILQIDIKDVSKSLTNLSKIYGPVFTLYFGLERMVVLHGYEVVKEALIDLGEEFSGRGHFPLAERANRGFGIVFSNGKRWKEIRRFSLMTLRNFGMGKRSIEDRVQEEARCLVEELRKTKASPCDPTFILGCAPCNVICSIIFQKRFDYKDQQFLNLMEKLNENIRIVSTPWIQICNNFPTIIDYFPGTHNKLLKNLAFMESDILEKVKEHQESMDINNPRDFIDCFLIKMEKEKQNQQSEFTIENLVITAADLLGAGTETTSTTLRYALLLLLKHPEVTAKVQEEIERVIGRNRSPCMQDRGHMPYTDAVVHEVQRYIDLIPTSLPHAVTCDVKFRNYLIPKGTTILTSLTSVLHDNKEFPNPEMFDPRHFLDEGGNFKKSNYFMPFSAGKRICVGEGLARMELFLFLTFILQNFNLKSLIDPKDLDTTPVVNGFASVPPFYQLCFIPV

CN(C)c1ncc2nc(-c3ccccc3)c(=O)n(C3CC3)c2n1
inconclusive: activity change, negative = inhibition [1] 44.7% [activator] [at 7.69 µM] | activity change, negative = inhibition [2] 56.2% [activator] [at 7.69 µM] | activity, negative = inhibition [3] 62.8% [activator] | Potency [4] 25.1 µM [activator, partial curve] | Potency [5] 6.31 µM [activator, partial curve]
active: Potency [6] 3.16 µM

COc1cccc(Cn2c(=O)c(-c3cccs3)nc3cnc(N4CCN(C)CC4)nc32)c1
active: activity change, negative = inhibition [2] 160% [activator] [at 7.69 µM]
inconclusive: activity change, negative = inhibition [1] 109% [activator] [at 7.69 µM] | activity, negative = inhibition [3] 225% [activator] | Potency [4] 10 µM [activator, partial curve] | Potency [6] 3.16 µM [fluorescent, side channel, partial curve]

CN1CCN(c2ncc3nc(-c4ccc(F)cc4)c(=O)n(Cc4cccs4)c3n2)CC1
inconclusive: activity change, negative = inhibition [1] 134% [activator] [at 7.69 µM] | activity change, negative = inhibition [2] 162% [activator] [at 7.69 µM] | activity, negative = inhibition [3] 153% [activator] | Potency [4] 12.6 µM [activator, partial curve] | Potency [7] 0.0126 µM [inhibitor, full curve, poor fit] | Potency [8] 10 µM [activator, partial curve]
active: Potency [6] 3.16 µM

O=c1c(-c2ccccc2)nc2cnc(N3CCOCC3)nc2n1Cc1ccc(F)cc1
inconclusive: activity change, negative = inhibition [1] 110% [activator] [at 7.69 µM] | activity change, negative = inhibition [2] 167% [activator] [at 7.69 µM] | activity, negative = inhibition [3] 307% [activator] | Potency [5] 1.58 µM [activator, single point] | Potency [6] 2.51 µM [fluorescent, side channel, partial curve]

Nc1ccc(N=Nc2ccc(-c3ccc(O)cc3)cc2)c2ccc(S(=O)(=O)O)cc12
inconclusive: activity change, negative = inhibition [1] -70.1% [inhibitor] [at 7.69 µM] | activity change, negative = inhibition [2] -81% [inhibitor] [at 7.69 µM] | activity, negative = inhibition [3] -44.9% [inhibitor] | Potency [4] 3.98 µM [inhibitor, partial curve] | Potency [7] 5.01 µM [inhibitor, single point] | Potency [9] 6.31 µM [inhibitor, single point]

Cc1ccc(C2C3CN(C(C)C)CC=C3C(C#N)=C(N)C2(C#N)C#N)cc1 (centres undefined)
inconclusive: activity change, negative = inhibition [1] 35% [activator] | activity change, negative = inhibition [2] 111% [activator] | activity, negative = inhibition [3] 58.3% [activator] [at 17.2 µM] | Potency [10] 13 µM [inhibitor, partial curve, poor fit]

Cn1cc(-c2nc3cnc(N4CCNCC4)nc3n(Cc3ccc(F)cc3)c2=O)c2ccccc21
inconclusive: activity change, negative = inhibition [1] 89.6% [activator] [at 7.69 µM] | activity, negative = inhibition [3] 160% [activator] | Potency [4] 3.98 µM [activator, partial curve] | Potency [6] 3.16 µM [fluorescent, side channel, partial curve] | Potency [11] 25.1 µM [inhibitor, partial curve, poor fit]
active: activity change, negative = inhibition [2] 68.4% [activator] [at 7.69 µM]

CN1CCN(c2ncc3nc(-c4ccc(Cl)cc4)c(=O)n(-c4ccccc4)c3n2)CC1
inconclusive: activity change, negative = inhibition [1] 194% [activator] [at 7.69 µM] | activity change, negative = inhibition [2] 200% [activator] [at 7.69 µM] | activity, negative = inhibition [3] 191% [activator] | Potency [4] 15.8 µM [activator, partial curve] | Potency [6] 3.16 µM [fluorescent, partial curve]
